Hit rate of the full screen: of about 410,000 compounds, about 6,400 (1.6%) were called active. The inconclusive results got no clear call from the source; some entries with a clear call stand among them for comparison. Calls follow the shape of the dose curve; as a rule, active = well fitted inhibition curve with a large enough effect; inconclusive = small, poorly fitted or top-dose-only effect; inactive = no such curve, though single readings can be large or run the other way. Potencies of inconclusive entries are left out as doubtful fits.
Target: Glucagon-like peptide 1 receptor (Homo sapiens) (UniProt P43220)
UniProt P43220, sequence (P43220 whole entry, looked up): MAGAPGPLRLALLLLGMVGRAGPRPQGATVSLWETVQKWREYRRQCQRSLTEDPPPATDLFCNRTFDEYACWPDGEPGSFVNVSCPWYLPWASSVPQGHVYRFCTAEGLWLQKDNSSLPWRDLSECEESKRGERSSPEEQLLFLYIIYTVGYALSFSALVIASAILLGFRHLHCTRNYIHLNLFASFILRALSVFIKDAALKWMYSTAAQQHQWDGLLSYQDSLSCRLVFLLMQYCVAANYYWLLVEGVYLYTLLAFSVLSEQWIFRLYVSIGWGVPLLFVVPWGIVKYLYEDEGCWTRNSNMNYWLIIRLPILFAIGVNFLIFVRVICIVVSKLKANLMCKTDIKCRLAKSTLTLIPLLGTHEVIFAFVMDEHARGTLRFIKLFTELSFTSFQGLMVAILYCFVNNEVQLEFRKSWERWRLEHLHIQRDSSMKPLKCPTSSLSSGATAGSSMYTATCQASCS
Assay: qHTS of GLP-1 Receptor Inverse Agonists (Inhibition Mode); also: nearly all actives have a fitted effect of over 55% in size
Settings: HEK293 GLP-1R CRE-luciferase, luminescence, 24 h, GLP-1R form is constitutively active; series mostly up to 38.3 µM
Procedure, shortened: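 Using stably transfected HEK293 (constitutively active GLP-1R, cAMP-luciferase reporter), compounds were incubated 24 hr and luciferase measured by luminescence.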
Potency is read from the fitted curve at half-maximal effect; tags tell the direction and shape of the fitted curve.

**Q.** With O=C(/C=C/c1cccc([N+](=O)[O-])c1)c1ccco1 as the molecule, how does the Potency read?
**A.** inactive

**Q.** For CSc1nc2ccccc2c(=O)n1Cc1ccc(F)cc1, which Potency is on record?
**A.** inconclusive [inhibitor, single point]

**Q.** Which Potency does the source give for COc1cccc(CC2(CO)CCCN(Cc3ccc4c(c3)OCCO4)C2)c1 (stereo not drawn) here?
**A.** inconclusive [inhibitor, partial curve, poor fit]

**Q.** With CCCn1c(SCC(=O)Nc2cccc(C(=O)OCC)c2)nnc1-c1ccoc1C as the molecule, how does the Potency read?
**A.** inconclusive [inhibitor, single point]

**Q.** How did the Potency turn out when COc1ccc(OC)c(-c2noc(N3CCN(c4cccc(C(F)(F)F)c4)CC3)n2)c1 was run?
**A.** inconclusive [inhibitor, partial curve, poor fit]

**Q.** For COCCNC(=O)CSc1nnc(-c2ccc(C)cc2)c(-c2ccc(C)cc2)n1, which Potency is on record?
**A.** inconclusive [inhibitor, partial curve, poor fit]

**Q.** For CSc1cnc2c(=O)n(C)c(=O)[nH]c2n1, which Potency is on record?
**A.** inactive

**Q.** How did the Potency turn out when COc1ccc(OCCCn2c(C3CC(=O)N(c4ccc(F)cc4)C3)nc3ccccc32)cc1 (stereo not drawn) was run?
**A.** inconclusive [inhibitor, partial curve, poor fit]

**Q.** With Cc1ccc(/C=C/C(=O)N2CC(=O)Nc3ccccc32)o1 as the molecule, how does the Potency read?
**A.** inactive

**Q.** COC(=O)c1c(C)[nH]c(C(=O)COC(=O)CCc2ccc(OC)c(OC)c2)c1C was tested. Which Potency did it give?
**A.** inactive

**Q.** Which Potency does the source give for Cc1cc(CN(C)Cc2ccc(OCC(O)CN(C)Cc3ccccc3)cc2)on1 (stereo not drawn) here?
**A.** inconclusive [inhibitor, partial curve, poor fit]

**Q.** With O=C(CSc1nnc(-c2ccc(Cl)cc2)n1Cc1ccco1)NCc1ccc2c(c1)OCO2 as the molecule, how does the Potency read?
**A.** active: 10 µM

**Q.** For Cc1c(CC(=O)NCCc2ccccc2)c(=O)oc2c(C)c3occ(C(C)(C)C)c3cc12, which Potency is on record?
**A.** inactive

**Q.** For Cc1cc(C)c2c(NC(=O)c3ccccc3Cl)c(C(=O)NCc3ccc(Cl)cc3)sc2n1, which Potency is on record?
**A.** inactive

**Q.** How did the Potency turn out when O=C(COc1ccccc1-c1nc(-c2ccccc2)no1)Nc1ccc([N+](=O)[O-])cc1 was run?
**A.** inactive

**Q.** Which Potency does the source give for O=C(Nc1ccc(S(=O)(=O)NC2=NCCCCC2)cc1)c1ccc(Cl)c([N+](=O)[O-])c1 here?
**A.** inactive

**Q.** Which Potency does the source give for CN1CCN(CCCNC(=O)c2ccc(/C=C3\Sc4ccccc4N(Cc4ccccc4F)C3=O)cc2)CC1 here?
**A.** inconclusive [inhibitor, partial curve, poor fit]

**Q.** For Cc1ccc(CN(Cc2cccn2-c2nnc(N3CCCC3=O)s2)C(=O)Nc2ccccc2Cl)cc1, which Potency is on record?
**A.** inconclusive [inhibitor, single point]

**Q.** COC(=O)c1c(NC(=O)COC(=O)CCS(=O)(=O)c2ccc(C)cc2)sc(C)c1C was tested. Which Potency did it give?
**A.** inconclusive [inhibitor, partial curve]

**Q.** CN(CC(=O)Nc1c(Cl)cccc1Cl)C(=O)CCC1CCCC1 was tested. Which Potency did it give?
**A.** inconclusive [inhibitor, partial curve, poor fit]

**Q.** For Cc1c(CC(=O)NCC(=O)O)c(=O)oc2cc3occ(-c4ccccc4)c3cc12, which Potency is on record?
**A.** inactive

**Q.** With Cc1ccc(C(C)C)c(OCC(=O)Nc2sc3c(c2C#N)CC(C)(C)NC3(C)C)c1 as the molecule, how does the Potency read?
**A.** inconclusive [inhibitor, full curve, poor fit]

**Q.** For COC(=O)c1cnc(NC(=O)C2(C)CCCN(C(C)=O)C2)s1 (stereo not drawn), which Potency is on record?
**A.** inactive

**Q.** For Cc1ccccc1-c1noc(-c2ccc(NCc3cccnc3)c([N+](=O)[O-])c2)n1, which Potency is on record?
**A.** inactive

**Q.** Which Potency does the source give for Cc1ccc(CNC(=O)c2c(-c3ccccc3)noc2C)cc1 here?
**A.** inconclusive [inhibitor, partial curve, poor fit]

**Q.** How did the Potency turn out when CC1=C(c2ccc(C(C)C)cc2)S(=O)(=O)N=C1N1CCC(C(=O)NCc2ccc(C)o2)CC1 was run?
**A.** inactive

**Q.** O=C(NC1CCCCC1)c1ccc(CSc2nc3cccnc3n2Cc2ccccc2)cc1 was tested. Which Potency did it give?
**A.** inconclusive [inhibitor, single point]

**Q.** Which Potency does the source give for COc1ccc(C(=O)Nn2c(SCC(=O)NCc3ccccc3)nc3ccccc3c2=O)cc1 here?
**A.** inconclusive [inhibitor, partial curve, poor fit]

**Q.** For COc1ccccc1CNC(=O)Cc1ccccc1, which Potency is on record?
**A.** inactive

**Q.** How did the Potency turn out when Cc1cccc(C(=O)n2c(=S)nc3cc(C)ccn32)c1 was run?
**A.** inconclusive [inhibitor, full curve, poor fit]

**Q.** With COc1cc(CN2CCN(S(=O)(=O)c3ccccc3)CC2)cc(OC)c1OC as the molecule, how does the Potency read?
**A.** inactive

**Q.** CCC(=O)C1CCCN(C(=O)CCc2nnc(C3(c4ccc(Cl)cc4)CCC3)o2)C1 (stereo not drawn) was tested. Which Potency did it give?
**A.** inconclusive [inhibitor, partial curve]

**Q.** With CC1CCN(C(=O)CSCC(=O)Nc2nc(-c3cccs3)cs2)CC1 as the molecule, how does the Potency read?
**A.** inconclusive [inhibitor, partial curve, poor fit]

**Q.** With Cc1nc(NC(=O)CC(C)C)sc1-c1csc(Nc2ccc(Cl)cc2Cl)n1 as the molecule, how does the Potency read?
**A.** inconclusive [inhibitor, partial curve, poor fit]

**Q.** Cn1c(=O)c2cc(NC(=O)OCCF)ccc2n1Cc1cccc(C(F)(F)F)c1 was tested. Which Potency did it give?
**A.** inactive

**Q.** How did the Potency turn out when CC(C)NC(=O)c1ccc(CSc2nc3ccncc3n2Cc2cccc(F)c2)cc1 was run?
**A.** inactive

**Q.** With CCc1nc2c(OCc3ccccc3C)cccn2c1N(C)C(=O)C(C)C as the molecule, how does the Potency read?
**A.** inconclusive [inhibitor, single point]

**Q.** Which Potency does the source give for Cc1cc(C)c[n+](CC(=O)c2ccc(-c3ccccc3)cc2)c1 here?
**A.** inconclusive [inhibitor, partial curve, poor fit]

**Q.** Which Potency does the source give for Cc1ccccc1NC(=O)c1c(C)oc2ccc(O)c(CN3CCCCCC3)c12 here?
**A.** inconclusive [inhibitor, single point]

**Q.** With COc1ccc(NC(=O)COc2ccc(N(C)S(=O)(=O)c3ccc(Cl)cc3)cc2)cc1 as the molecule, how does the Potency read?
**A.** inconclusive [inhibitor, single point]

**Q.** With FC(F)(F)c1cccc(Nc2nc3nonc3nc2Nc2ccc(Cl)cc2)c1 as the molecule, how does the Potency read?
**A.** inconclusive [inhibitor, full curve, poor fit]

**Q.** For CCN(C(=O)Cn1c(C(=O)OC)cc2sccc21)c1cccc(C)c1, which Potency is on record?
**A.** inconclusive [inhibitor, single point]

**Q.** How did the Potency turn out when CCN(CC)C(=O)C(=O)c1cn(CCOc2ccccc2)c2ccccc12 was run?
**A.** inconclusive [inhibitor, partial curve]

**Q.** For Cc1cc(C)nc(SC2CC(=O)N(c3ccc(Br)cc3)C2=O)n1 (stereo not drawn), which Potency is on record?
**A.** inconclusive [inhibitor, single point]

**Q.** For Cc1cccc(N2CC(C(=O)OCC(=O)Nc3sccc3C(N)=O)CC2=O)c1C (stereo not drawn), which Potency is on record?
**A.** inactive

**Q.** For CS(=O)(=O)N1CCN(c2ccccc2NC(=O)c2ccc(Cl)cc2)CC1, which Potency is on record?
**A.** inconclusive [inhibitor, partial curve]

**Q.** With FC(F)(F)c1cc(-c2ccco2)nc(NCc2ccc(Cl)cc2)n1 as the molecule, how does the Potency read?
**A.** inconclusive [inhibitor, partial curve, poor fit]

**Q.** How did the Potency turn out when CCNC(=S)N/N=C(\C)c1cccc(C(F)(F)F)c1 was run?
**A.** active: 4.47 µM

**Q.** Which Potency does the source give for O=C(CC(c1ccccc1)C1CCCCC1=O)c1ccco1 (stereo not drawn) here?
**A.** inconclusive [inhibitor, full curve, poor fit]

**Q.** CC1=C(C(=O)Nc2ccccc2Br)C2(CCC(C)CC2)OC1=O (stereo not drawn) was tested. Which Potency did it give?
**A.** inactive

**Q.** With O=C(CNCCc1ccc(Cl)cc1Cl)NCc1ccco1 as the molecule, how does the Potency read?
**A.** inconclusive [inhibitor, single point]

**Q.** For Cc1ccc(C(=O)NCc2ccc3c(c2)CCO3)cc1C, which Potency is on record?
**A.** inconclusive [inhibitor, partial curve, poor fit]

**Q.** Which Potency does the source give for CCN(CC)CCC(=O)Nc1cccc2c1C(=O)c1ccccc1C2=O here?
**A.** inconclusive [inhibitor, single point]

**Q.** How did the Potency turn out when COc1ccc(CCNC(=O)c2ccccc2NS(=O)(=O)c2c(F)cccc2F)cc1 was run?
**A.** inactive

**Q.** Which Potency does the source give for Cc1ccc(CNC(=O)CCCCCn2c(=O)c3sccc3n(CC(=O)N3CCCCC3C)c2=O)cc1 (stereo not drawn) here?
**A.** inactive

**Q.** Which Potency does the source give for Cc1nc2nc(Cc3ccccc3)nn2c(C)c1Cl here?
**A.** inactive

**Q.** Which Potency does the source give for CCOC(=O)c1ccc(NC(=O)Cc2noc3ccc(C)cc23)cc1 here?
**A.** inconclusive [inhibitor, single point]

**Q.** CN(Cc1ccccc1)c1ncnc2ccc(Br)cc12 was tested. Which Potency did it give?
**A.** inconclusive [inhibitor, single point]

**Q.** For O=c1[nH]nc(CNc2ccc(C(F)(F)F)cc2)c2ccccc12, which Potency is on record?
**A.** inactive

**Q.** For CCOc1ccc2oc(C(=O)OCC(=O)N3CCCC(C)C3)c(C)c2c1 (stereo not drawn), which Potency is on record?
**A.** inconclusive [inhibitor, single point]

**Q.** O=C(O)C1C2CCCCC2=C2CCCCC2C1C(=O)c1ccccc1 (stereo not drawn) was tested. Which Potency did it give?
**A.** inconclusive [inhibitor, single point]

**Q.** With CCCc1cc(=O)[nH]c(Nc2cc(Cl)cc(Cl)c2)n1 as the molecule, how does the Potency read?
**A.** inconclusive [inhibitor, partial curve, poor fit]

**Q.** Which Potency does the source give for CCOC(=O)c1c(CN2CCN(C)CC2)oc2ccc(OC)cc12 here?
**A.** inactive

**Q.** Which Potency does the source give for COc1cc(C(=O)N/N=C(\C)c2ccc3c(c2)OCO3)cc(OC)c1OC here?
**A.** inconclusive [inhibitor, full curve, poor fit]

**Q.** With Cc1nnc(NC(=O)c2ccc(S(=O)(=O)N3CCCCCC3)cc2)o1 as the molecule, how does the Potency read?
**A.** inactive

**Q.** How did the Potency turn out when COc1ccc(CN(C)CC(=O)Nc2ccccc2-c2ccccc2)c(OC)c1 was run?
**A.** inconclusive [inhibitor, single point]

**Q.** COc1ccccc1N(C)S(=O)(=O)c1ccc(C(=O)NC(C)c2ccccc2)cc1 (stereo not drawn) was tested. Which Potency did it give?
**A.** inconclusive [inhibitor, single point]

**Q.** For CCOC(=O)CSC1=NC(=O)/C(=C/c2ccc(OC)cc2)S1, which Potency is on record?
**A.** inconclusive [inhibitor, single point]

From PubChem BioAssay AID624417 (National Center for Advancing Translational Sciences (NCATS), 2012)
